# Experimental data published in PubChem BioAssay AID2101 (National Center for Advancing Translational Sciences (NCATS), 2009).
# The whole screen tested about 330,000 compounds, of which about 300 (0.091%) were called active. This list was built around the results that the source calls inconclusive (neither active nor inactive); the mix of calls is not that of the screen. The call rests on the fitted dose curve; in most records, active means well fitted inhibition curve with a large enough effect; inconclusive means small, poorly fitted or top-dose-only effect, or effect the other way, or another doubt; inactive means no such curve, though single readings can be large or run the other way. No potency is given beside an inconclusive call; the fits are too rough.
# Target: Lysosomal acid glucosylceramidase (Homo sapiens) (UniProt P04062)
# Test: qHTS Assay for Inhibitors and Activators of N370S glucocerebrosidase as a Potential Chaperone Treatment of Gaucher Disease;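 on activity change, negative = inhibition: 0% = full enzyme activity and -100% = no enzyme basal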
# Conditions: N370S GC spleen homogenate, 4MU-glucoside fluorescence; activity change, negative = inhibition: at 59.4 µM (top of the series) unless noted
# Potency means the concentration at half of the fitted maximal effect.
Compound,Potency,"activity change, negative = inhibition"
CC(C)(C)OC(=O)CNC(=O)c1[nH]cnc1C(=O)Nc1ccc(CNC(=O)OC(C)(C)C)cc1,"inconclusive [activator, single point]",–
CCc1ccc(NC(=O)NCC2CCN(Cc3cccc(Cl)c3)CC2)cc1,"inconclusive [inhibitor, partial curve, poor fit]",–
Clc1ccc(SCc2cn3cccnc3n2)cc1,"inconclusive [inhibitor, partial curve, poor fit]",–
Cc1ccccc1NCc1ccccc1O,"inconclusive [activator, single point]",–
COc1ccc2c(C)c(CC(=O)N3CCN(C(=O)C4COc5ccccc5O4)CC3)c(=O)oc2c1C (stereo unspecified),inactive,–
COc1ccc(N2CC(O)=C(c3nc4ccccc4s3)C2=N)c(OC)c1,"inconclusive [activator, partial curve, poor fit]",–
Cc1c(/C=N\NC(=O)C2COc3ccccc3O2)c2ccccc2n1C (stereo unspecified),"inconclusive [activator, full curve]",–
COc1ccc(NC(=O)c2cc(-c3cccs3)on2)cc1OC,inactive,–
CCOC(=O)C1CCCN(C(=O)c2ccc(-c3ccc([N+](=O)[O-])cc3)o2)C1 (stereo unspecified),"inconclusive [inhibitor, partial curve, poor fit]",–
CN(c1ccccc1C(=O)Nc1ccc2c(c1)n(C)c(=O)n2C)S(C)(=O)=O,inactive,–
COc1ccc(C2CC(=O)N(CC(=O)NCC3CCCO3)c3ccccc3S2)cc1OC (stereo unspecified),"inconclusive [inhibitor, single point]",–
CCOC(=O)c1ccc(NC(=O)CC2Sc3ncnn3C2=O)cc1 (stereo unspecified),inactive,–
CC(C)Oc1ccccc1NC(=O)CSc1nc2ccccc2c(=O)n1C,"inconclusive [activator, single point]",–
Cc1cc2c(s1)CCCCC(=O)N2,–,inconclusive: 27.4% [activator]
CCN=c1scc(C)n1/N=C/c1ccsc1,inactive,–
CCOc1ccc(OCC)c(NC(=O)C2COc3ccccc3O2)c1 (stereo unspecified),inactive,–
O=C(NCCc1nc2ccccc2[nH]1)/C(=C/c1ccco1)NC(=O)c1ccc(Br)o1,"inconclusive [inhibitor, partial curve, poor fit]",–
Cc1cccc(NC(=O)C2c3ccccc3Oc3ccccc32)n1,"inconclusive [activator, partial curve, poor fit]",–
Cc1ccc2oc3nc(C)c(C(=O)O)cc3c(=O)c2c1,inactive,–
CNC(=O)/C(C#N)=C/c1ccc(-c2nc3ccccc3s2)o1,inactive,–
Cc1c(C)c2ccc(OC(C)C(=O)NCc3ccccn3)cc2oc1=O (stereo unspecified),"inconclusive [activator, partial curve]",–
COc1ccccc1-n1c(SCC(=O)Nc2ccccc2F)nc2[nH]ncc2c1=O,"inconclusive [activator, partial curve]",–
CN(C)CCCN(C(=O)c1ccc(S(=O)(=O)N2CCCCCC2)cc1)c1nc2ccc(F)cc2s1,"inconclusive [inhibitor, full curve, poor fit]",–

Compound,Potency,"activity change, negative = inhibition"
OC(CN1C2=NCCCN2c2ccccc21)c1ccc2c(c1)OCO2 (stereo unspecified),inactive,–
CC(=O)N1CCN(c2ccc(NCc3ccc(C(C)C)cc3)cc2)CC1,"inconclusive [inhibitor, single point]",–
O=C(/C=C/c1ccccc1[N+](=O)[O-])c1ccccc1Br,"inconclusive [activator, single point]",–
C/C=C1/C(=O)C[C@@H]2[C@H]3CCC4=CC(=O)CC[C@]4(C)[C@@H]3CC[C@]12C,inactive,–
CCOC(=O)c1c(-c2cccs2)csc1NC(=O)CN1CC(C)OC(C)C1 (stereo unspecified),"inconclusive [activator, partial curve]",–
CCOC(=O)N1CCN(Cc2ccccn2)CC1,inactive,–
CNc1ncc(C(=O)c2ccc(Cl)c(Cl)c2)s1,"inconclusive [inhibitor, single point]",–
O=C(CSc1nc(O)c(C2CCCCC2)c(=O)[nH]1)Nc1ccccc1Cl,"inconclusive [activator, partial curve]",–
Cc1ccc(NC(=O)/C=C/c2ccc3c(c2)OCO3)nc1,inactive,–
O=[N+]([O-])c1cc(S(=O)(=O)C(F)(F)F)ccc1N1CCN(c2ccccc2)CC1,inactive,–
O=C(O)c1ccccc1-c1ccccc1C(=O)Nc1ccccc1Br,"inconclusive [activator, single point]",–
O=C(O)C1CC=CCC1C(=O)N1CCN(c2nc(-c3ccccc3Cl)c3cc(Br)ccc3n2)CC1 (stereo unspecified),"inconclusive [inhibitor, single point]",–
CCCC(=O)NC(c1ccccc1)c1c(O)ccc2ccccc12 (stereo unspecified),"inconclusive [activator, partial curve]",–
COc1ccccc1N1CCN(/N=C/c2cc(OC)c(O)c(OC)c2)CC1,–,inconclusive: 27.4% [activator]
O=C(NC1CCCCC1)NC1CCCCC1,inactive,–
Cc1c(CC(=O)N[C@@H](C)C(=O)O)c(=O)oc2cc3c(cc12)CCC(C)(C)O3,"inconclusive [activator, single point]",–
CCOc1ccccc1NC(=S)NC(=O)C1CCCCC1,"inconclusive [activator, single point]",–
CCOC(=O)C1=C(c2ccccc2)NC(N)=NC1c1ccc(OCc2ccc(Cl)cc2)c(OC)c1 (stereo unspecified),active: 22.4 µM,–
COCCn1c(=O)[nH]c2cc(C(=O)NC(C)C)ccc2c1=O,"inconclusive [activator, single point]",–
CCO[C@H]1OC(C(=O)N2CCN(Cc3ccc4c(c3)OCO4)CC2)=C[C@@H](c2ccc(Br)cc2)[C@@H]1CCCO,"inconclusive [inhibitor, single point]",–
Cc1ccsc1C=Nc1c(C)n(C)n(-c2ccccc2)c1=O,inactive,–
COc1ccc(C2SCC(=O)N2CCc2ccc(OC)c(OC)c2)cc1 (stereo unspecified),inactive,–
Cc1nn(C)c(C)c1NC(=O)Nc1cccc(C(F)(F)F)c1,"inconclusive [inhibitor, single point]",–
